Experimental data as given in US20100222401A1, “COMPOSITIONS AND METHODS FOR TREATING PATHOLOGIC ANGIOGENESIS AND VASCULAR PERMEABILITY” (priority 2008, published 2010).

Key:
Rac = Rac activation assay (GST-PBD pull down), HEK 293 cells expressing Robo4; assay type: cell-based, human; conditions: HEK 293 cells expressing Robo4 on fibronectin and Slit2, versus pcDNA3
Robo4 and paxillin = molecular target: T1, Robo4 and paxillin (Mus musculus, UniProt Q8C310); experiment: Robo4 immunoprecipitation, detection of endogenous paxillin; assay type: cell-based; conditions: HEK 293 cells expressing Robo4, presence versus absence of Slit2
T1 construct: HEK 293 cells were transfected with full length Robo4-HA and paxillin-V5, and stimulated with Slit2 for 5 minutes; expressed in transfected cells; host or cells: HEK 293

Cdc42 = Cdc42 activation assay, HEK 293 cells expressing Robo4; assay type: cell-based, human; conditions: HEK 293 cells expressing Robo4, exposure to Slit2
[1] = tested on: bovine aortic endothelial (BAE) cells; assay type: cell-based
[2] = tested on: HEK 293 cells expressing Robo4; experiment: Haptotaxis migration assay, transfected HEK 293 cells; assay type: cell-based, human

T1 sequence (Q8C310 28-1012): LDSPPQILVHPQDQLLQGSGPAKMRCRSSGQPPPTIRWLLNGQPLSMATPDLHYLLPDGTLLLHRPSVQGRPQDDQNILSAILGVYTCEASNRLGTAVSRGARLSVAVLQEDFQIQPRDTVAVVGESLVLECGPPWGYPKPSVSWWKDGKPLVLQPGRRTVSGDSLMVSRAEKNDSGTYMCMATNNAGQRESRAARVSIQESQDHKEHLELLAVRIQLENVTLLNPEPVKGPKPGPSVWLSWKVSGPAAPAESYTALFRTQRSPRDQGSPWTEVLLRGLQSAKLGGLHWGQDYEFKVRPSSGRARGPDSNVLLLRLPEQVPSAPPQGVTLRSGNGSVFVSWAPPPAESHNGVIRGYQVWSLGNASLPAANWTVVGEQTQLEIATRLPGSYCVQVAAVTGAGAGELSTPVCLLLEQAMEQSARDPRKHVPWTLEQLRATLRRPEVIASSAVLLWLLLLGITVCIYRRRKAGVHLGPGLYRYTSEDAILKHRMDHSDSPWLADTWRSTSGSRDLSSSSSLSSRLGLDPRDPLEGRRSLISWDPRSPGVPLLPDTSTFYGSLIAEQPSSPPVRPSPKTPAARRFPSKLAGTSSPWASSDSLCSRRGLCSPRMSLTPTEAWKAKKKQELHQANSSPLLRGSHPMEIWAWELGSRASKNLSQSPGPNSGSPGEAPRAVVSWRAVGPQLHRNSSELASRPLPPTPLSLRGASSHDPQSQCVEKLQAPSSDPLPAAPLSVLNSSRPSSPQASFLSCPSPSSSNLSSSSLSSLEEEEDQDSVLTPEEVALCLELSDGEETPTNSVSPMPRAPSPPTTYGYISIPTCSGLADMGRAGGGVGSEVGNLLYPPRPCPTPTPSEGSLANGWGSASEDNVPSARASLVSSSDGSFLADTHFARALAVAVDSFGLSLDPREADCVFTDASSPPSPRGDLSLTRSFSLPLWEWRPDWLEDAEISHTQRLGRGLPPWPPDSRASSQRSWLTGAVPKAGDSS
T1 sequence (P49023 whole entry partner): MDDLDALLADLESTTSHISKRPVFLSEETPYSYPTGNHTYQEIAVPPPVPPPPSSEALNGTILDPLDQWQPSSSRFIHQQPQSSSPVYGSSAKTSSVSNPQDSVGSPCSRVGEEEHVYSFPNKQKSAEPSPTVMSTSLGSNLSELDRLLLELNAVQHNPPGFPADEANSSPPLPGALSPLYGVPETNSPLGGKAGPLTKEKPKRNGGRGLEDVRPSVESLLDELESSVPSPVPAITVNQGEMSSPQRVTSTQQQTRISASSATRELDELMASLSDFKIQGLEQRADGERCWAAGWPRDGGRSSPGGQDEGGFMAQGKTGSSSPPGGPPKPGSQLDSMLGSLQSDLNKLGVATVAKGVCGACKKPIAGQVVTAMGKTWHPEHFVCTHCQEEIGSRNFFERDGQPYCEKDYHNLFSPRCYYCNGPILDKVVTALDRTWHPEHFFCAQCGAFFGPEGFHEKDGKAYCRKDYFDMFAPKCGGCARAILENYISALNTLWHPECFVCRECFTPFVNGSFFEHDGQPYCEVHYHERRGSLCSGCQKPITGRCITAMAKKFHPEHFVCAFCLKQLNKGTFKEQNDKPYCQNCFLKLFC

B1: Slit2N (protein)
chain: QACPAQCSCSGSTVDCHGLALRSVPRNIPRNTERLDLNGNNITRITKTDFAGLRHLRVLQLMENKISTIERGAFQDLKELERLRLNRNHLQLFPELLFLGTAKLYRLDLSENQIQAIPRKAFRGAVDIKNLQLDYNQISCIEDGAFRALRDLEVLTLNNNNITRLSVASFNHMPKLRTFRLHSNNLYCDCHLAWLSDWLRQRPRVGLYTQCMGPSHLRGHNVAEVQKREFVCSGHQSFMAPSCSVLHCPAACTCSNNIVDCRGKGLTEIPTNLPETITEIRLEQNTIKVIPPGAFSPYKKLRRIDLSNNQISELAPDAFQGLRSLNSLVLYGNKITELPKSLFEGLFSLQLLLLNANKINCLRVDAFQDLHNLNLLSLYDNKLQTIAKGTFSPLRAIQTMHLAQNPFICDCHLKWLADYLHTNPIETSGARCTSPRRLANKRIGQIKSKKFRCSAKEQYFIPGTEDYRSKLSGDCFADLACPEKCRCEGTTVDCSNQKLNKIPEHIPQYTAELRLNNNEFTVLEATGIFKKLPQLRKINFSNNKITDIEEGAFEGASGVNEILLTSNRLENVQHKMFKGLESLKTLMLRSNRITCVGNDSFIGLSSVRLLSLYDNQITTVAPGAFDTLHSLSTLNLLANPFNCNCYLAWLGEWLRKKRIVTGNPRCQKPYFLKEIPIQDVAIQDFTCDDGNDDNSCSPLSRCPTECTCLDTVVRCSNKGLKVLPKGIPRDVTELYLDGNQFTLVPKELSNYKHLTLIDLSNNRISTLSNQSFSNMTQLLTLILSYNRLRCIPPRTFDGLKSLRLLSLHGNDISVVPEGAFNDLSALSHLAIGANPLYCDCNMQWLSDWVKSEYKEPGIARCAGPGEMADKLLLTTPSKKFTCQGPVDVNILAKCNPCLSNPCKNDGTCNSDPVDFYRCTCPYGFKGQDCDVPIHACISNPCKHGGTCHLKEGEEDGFWCICADGFEGENCEVNVDDCEDNDCENNSTCVDGINNYTCLCPPEYTGELCEEKLDFCAQDLNPCQHDSKCILTPKGFKCDCTPGYVGEHCDIDFDDCQDNKCKNGAHCTDAVNGYTCICPEGYSGLFCEFSPP
Rac
  adhesion-stimulated Rac activation: significantly less
Robo4 and paxillin
  association of Robo4 with paxillin: stimulated
Cdc42
  Cdc42 activation: unaltered
[1]
  cell spreading: reduced spreading
[2]; HEK 293 cells expressing Robo4-NH2
  Fibronectin-dependent migration (haptotaxis): inhibited
[2]; HEK 293 cells expressing Robo4, membranes coated with fibronectin and Slit2
  fibronectin-induced migration (haptotaxis): inhibited
